# Read-outs that look alike come from different tables or passages of the source.
# T1: IL-10R on freshly isolated human blood monocytes (human, UniProt Q13651 22-578; Q08334 20-325)
# T1 sequence (looked up) 1: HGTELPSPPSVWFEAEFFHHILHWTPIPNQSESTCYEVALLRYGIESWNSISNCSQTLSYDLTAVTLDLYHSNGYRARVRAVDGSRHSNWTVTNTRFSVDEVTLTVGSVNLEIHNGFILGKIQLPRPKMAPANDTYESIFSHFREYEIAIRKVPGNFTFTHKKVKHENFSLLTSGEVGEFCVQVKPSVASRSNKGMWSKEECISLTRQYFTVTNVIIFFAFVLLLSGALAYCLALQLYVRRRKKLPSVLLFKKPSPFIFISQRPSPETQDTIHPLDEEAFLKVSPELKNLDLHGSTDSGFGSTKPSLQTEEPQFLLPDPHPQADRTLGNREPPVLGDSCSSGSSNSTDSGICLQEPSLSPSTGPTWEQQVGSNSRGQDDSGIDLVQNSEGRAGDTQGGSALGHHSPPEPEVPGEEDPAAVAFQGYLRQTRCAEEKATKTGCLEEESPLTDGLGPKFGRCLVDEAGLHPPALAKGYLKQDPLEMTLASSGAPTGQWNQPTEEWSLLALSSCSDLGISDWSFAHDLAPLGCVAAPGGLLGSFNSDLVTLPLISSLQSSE
# T1 sequence (looked up) 2: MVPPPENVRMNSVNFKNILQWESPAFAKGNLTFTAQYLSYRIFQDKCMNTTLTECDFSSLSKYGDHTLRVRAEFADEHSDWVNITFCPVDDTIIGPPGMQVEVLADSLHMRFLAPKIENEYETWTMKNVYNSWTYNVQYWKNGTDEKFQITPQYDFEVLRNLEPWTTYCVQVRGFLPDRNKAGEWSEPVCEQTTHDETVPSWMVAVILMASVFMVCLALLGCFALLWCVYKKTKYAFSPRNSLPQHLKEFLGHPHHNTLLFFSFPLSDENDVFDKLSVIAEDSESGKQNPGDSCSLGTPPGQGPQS
# What was measured:
# [1] = target: T2, recombinant human FAP coated on cell culture plates (human, UniProt Q12884 26-760, limits assumed); experiment: cell-based or functional assay
# [2] = target: T2, recombinant human FAP coated on cell …; experiment: cell-based or functional assay; remark: listed apart in the source
# [3] = target: T1, IL-10R on freshly isolated human blood …; experiment: cell-based or functional assay
# [4] = target: T3, His-tagged human FAP ECD (human, UniProt Q12884 27-760); experiment: SPR ProteOn XPR36, 25 C; His-tagged FAP captured by anti-penta-His IgG, construct as analyte
# T3 construct: also called hu FAP
# Method: (§1) To determine the affinities to FAP, the target protein was captured via its H6-tag by a covalently immobilized anti-H6 antibody (FIG. 9A). Briefly, anti-penta His IgG (Qiagen #34660, mouse monoclonal antibody) was immobilized at high levels (up to ˜5.000 RU) at 30 μ/min onto separate vertical channels of a GLM chip by simultaneously activating all channels for 5 min with a freshly prepared mixture of 1-ethyl-3-(3-dimethylaminopropyl)-carboiimide (EDC) and N-hydroxysuccinimide (sNHS), subsequently injecting 15 μg/ml anti-penta His IgG in 10 mM sodium acetate buffer pH 4.5 for 180 sec. Channels were blocked using a 5-min injection of ethanolamine. H6-tagged FAP from different species (see SEQ ID NOs 81, 83 and 85) was captured from a 5 μg/ml dilution in running buffer along the vertical channels for 60 s at 30 μl/min to achieve ligand densities between ˜250 and 600 RU. In a one-shot kinetic assay set-up (OSK), antibody-IL-10 fusion constructs were injected as analytes along the horizontal channels in a five-fold dilution series ranging from 50 to 0.08 nM at 100 μl/min. Association phase was recorded for 180 s, dissociation phase for 600 s. […] Running buffer (PBST) was injected along the sixth channel to provide an “in-line” blank for referencing. Association rates (kₒₙ) and dissociation rates (koff) were calculated using a simple 1:1 Langmuir binding model (ProteOn Manager software version 2.1) by simultaneously fitting the association and dissociation sensorgrams. The equilibrium dissociation constant (KD) was calculated as the ratio koff/kₒₙ.
# [5] = target: T4, His-tagged mouse FAP ECD (mouse, UniProt P97321 27-761); experiment: as above
# T4 construct: also called mu FAP; murine FAP
# Method: as §1
# [6] = target: T5, His-tagged cynomolgus FAP ECD (cynomolgus, UniProt Q12884 27-760 (human entry)); experiment: as above
# T5 construct: also called cyno FAP
# Method: as §1
# [7] = target: T4, His-tagged mouse FAP ECD; experiment: SPR ProteOn XPR36, 25 C; His-tagged FAP captured by anti-penta-His IgG, construct as analyte; off-rate could not be fitted, estimate used
# Method: as §1
# [8] = target: T4, His-tagged mouse FAP ECD; experiment: SPR ProteOn XPR36, 25 C; His-tagged FAP captured by anti-penta-His IgG, construct as analyte; KD calculated with the estimated koff
# Method: as §1
# [9] = target: T2, recombinant human FAP coated on cell …; experiment: cell-based or functional assay; remark: listed apart in the source
# [10] = target: T2, recombinant human FAP coated on cell …; experiment: cell-based or functional assay; remark: listed apart in the source
"EC50, suppression of hIL-1β production by monocytes, set-up (b) (immobilized), donor 2 [1] [nM]","EC50, suppression of hTNFα production by monocytes, set-up (b) (immobilized), donor 2 [1] [nM]","EC50, suppression of hIL-1β production by monocytes, set-up (b) (immobilized), donor 3 [2] [nM]","EC50 [nM] pSTAT3 induction, primary monocytes, Donor 1 [3] [nM]","EC50 [nM] pSTAT3 induction, primary monocytes, Donor 2 [3] [nM]","EC50 [nM] pSTAT3 induction, primary monocytes, Donor 3 [3] [nM]",Kd [4] [nM],koff [4] [s⁻¹],kon [4] [M⁻¹ s⁻¹],kon [5] [M⁻¹ s⁻¹],Kd [6] [nM],koff [6] [s⁻¹],kon [6] [M⁻¹ s⁻¹],koff [7] [s⁻¹],Kd [8] [nM],also measured,Binder
3.34,2.85,4.71,8.2,9.01,6.81,0.0557,0.000204,3.66e+06,1.52e+06,0.0629,0.000242,3.84e+06,~1e-05,–,–,"4G8 Fab-IL-10M1-Fab (other, Tandem Fab fragments with an engineered monomeric IL-10 between them) heavy: [about 100 residues omitted here]GWLGNFDYWGQGTLVTVSSASTKGPSVFPLAPSSKSTSGGTAALGCLVKDYFPEPVTVSWNSGALTSGVHTFPAVLQSSGLYSLSSVVTVPSSSLGTQTYICNVNHKPSNTKVDKKVEPKSCDGGGGSGGGGSGGGGSSPGQGTQSENSCTHFPGNLPNMLRDLRDAFSRVKTFFQMKDQLDNLLLKESLLEDFKGYLGCQALSEMIQFYLEEVMPQAENQDPDIKAHVNSLGENLKTLRLRLRRCHRFLPCENGGGSGGKSKAVEQVKNAFNKLQEKGIYKAMSEFDIFINYIEAYMTMKIRNGGGGSGGGGSGGGGS[about 100 residues omitted here][about 120 residues omitted here] light: EIVLTQSPGTLSLSPGERATLSCRASQSVSRSYLAWYQQKPGQAPRLLIIGASTRATGIPDRFSGSGSGTDFTLTISRLEPEDFAVYYCQQGQVIPPTFGQGTKVEIKRTVAAPSVFIFPPSDEQLKSGTASVVCLLNNFYPREAKVQWKVDNALQSGNSQESVTEQDSKDSTYSLSSTLTLSKADYEKHKVYACEVTHQGLSSPVTKSFNRGEC"
0.14,0.059,0.117,–,–,–,0.0352,7.93e-05,2.26e+06,1.99e+06,0.0341,0.000128,3.75e+06,~1e-05,0.00503,"EC50, suppression of hIL-6 production by monocytes, set-up (b) (immobilized), donor 2 [1]: 0.723 nM; EC50, suppression of hIL-6 production by monocytes, set-up (b) (immobilized), donor 3 [2]: 0.254 nM; EC50, suppression of hTNFα production by monocytes, set-up (b) (immobilized), donor 3 [2]: 0.145 nM","4G8 IgG-IL-10M1 (other, Knob-into-hole IgG1 (LALA P329G) with one engineered monomeric IL-10; the assignment is inferred) heavy 1: [about 100 residues omitted here]GWLGNFDYWGQGTLVTVSSASTKGPSVFPLAPSSKSTSGGTAALGCLVKDYFPEPVTVSWNSGALTSGVHTFPAVLQSSGLYSLSSVVTVPSSSLGTQTYICNVNHKPSNTKVDKKVEPKSCDKTHTCPPCPAPEAAGGPSVFLFPPKPKDTLMISRTPEVTCVVVDVSHEDPEVKFNWYVDGVEVHNAKTKPREEQYNSTYRVVSVLTVLHQDWLNGKEYKCKVSNKALGAPIEKTISKAKGQPREPQVCTLPPSRDELTKNQVSLSCAVKGFYPSDIAVEWESNGQPENNYKTTPPVLDSDGSFFLVSKLTVDKSRWQQGNVFSCSVMHEALHNHYTQKSLSLSPGGGGGSGGGGSGGGGSSPGQGTQSENSCTHFPGNLPNMLRDLRDAFSRVKTFFQMKDQLDNLLLKESLLEDFKGYLGCQALSEMIQFYLEEVMPQAENQDPDIKAHVNSLGENLKTLRLRLRRCHRFLPCENGGGSGGKSKAVEQVKNAFNKLQEKGIYKAMSEFDIFINYIEAYMTMKIRN heavy 2: [about 100 residues omitted here][about 120 residues omitted here][human IgG1 Fc with changes omitted here] light: EIVLTQSPGTLSLSPGERATLSCRASQSVSRSYLAWYQQKPGQAPRLLIIGASTRATGIPDRFSGSGSGTDFTLTISRLEPEDFAVYYCQQGQVIPPTFGQGTKVEIKRTVAAPSVFIFPPSDEQLKSGTASVVCLLNNFYPREAKVQWKVDNALQSGNSQESVTEQDSKDSTYSLSSTLTLSKADYEKHKVYACEVTHQGLSSPVTKSFNRGEC"
–,–,–,0.557,0.43,0.116,0.0543,0.000218,4.01e+06,1.8e+06,0.0544,0.000219,4.03e+06,~1e-05,0.00556,"EC50, suppression of hIL-1β production by monocytes, set-up (b) (immobilized) [9]: 0.1 nM; EC50, suppression of hIL-6 production by monocytes, set-up (b) (immobilized) [9]: 0.2 nM; EC50, suppression of hTNFα production by monocytes, set-up (b) (immobilized) [9]: 0.03 nM","4G8 Fab-scIL-10-Fab (other, Tandem Fab fragments with a single chain IL-10 dimer between them; also called Fab-scIL-10-Fab (clone 4G8)) heavy: [about 100 residues omitted here]GWLGNFDYWGQGTLVTVSSASTKGPSVFPLAPSSKSTSGGTAALGCLVKDYFPEPVTVSWNSGALTSGVHTFPAVLQSSGLYSLSSVVTVPSSSLGTQTYICNVNHKPSNTKVDKKVEPKSCDGGGGSGGGGSGGGGSSPGQGTQSENSCTHFPGNLPNMLRDLRDAFSRVKTFFQMKDQLDNLLLKESLLEDFKGYLGCQALSEMIQFYLEEVMPQAENQDPDIKAHVNSLGENLKTLRLRLRRCHRFLPCENKSKAVEQVKNAFNKLQEKGIYKAMSEFDIFINYIEAYMTMKIRNGGGGSGGGGSGGGGSGGGGSSPGQGTQSENSCTHFPGNLPNMLRDLRDAFSRVKTFFQMKDQLDNLLLKESLLEDFKGYLGCQALSEMIQFYLEEVMPQAENQDPDIKAHVNSLGENLKTLRLRLRRCHRFLPCENKSKAVEQVKNAFNKLQEKGIYKAMSEFDIFINYIEAYMTMKIRNGGGGSGGGGSGGGGS[about 100 residues omitted here][about 120 residues omitted here] light: EIVLTQSPGTLSLSPGERATLSCRASQSVSRSYLAWYQQKPGQAPRLLIIGASTRATGIPDRFSGSGSGTDFTLTISRLEPEDFAVYYCQQGQVIPPTFGQGTKVEIKRTVAAPSVFIFPPSDEQLKSGTASVVCLLNNFYPREAKVQWKVDNALQSGNSQESVTEQDSKDSTYSLSSTLTLSKADYEKHKVYACEVTHQGLSSPVTKSFNRGEC"
–,–,–,–,–,–,0.0251,7.76e-05,3.09e+06,1.7e+06,0.0521,0.00018,3.45e+06,–,–,"EC50, suppression of hIL-6 production by monocytes, set-up (b) (immobilized) [10]: 0.039 nM; Kd [5]: 0.00657 nM; koff [5]: 1.12e-05 s⁻¹","4G8 IgG-(IL-10M1)2 (other, also called IgG-(IL-10M1)2 (clone 4G8)) heavy: [about 100 residues omitted here][about 120 residues omitted here][human IgG1 Fc with changes omitted here]GGGGSGGGGSGGGGSSPGQGTQSENSCTHFPGNLPNMLRDLRDAFSRVKTFFQMKDQLDNLLLKESLLEDFKGYLGCQALSEMIQFYLEEVMPQAENQDPDIKAHVNSLGENLKTLRLRLRRCHRFLPCENGGGSGGKSKAVEQVKNAFNKLQEKGIYKAMSEFDIFINYIEAYMTMKIRN light: EIVLTQSPGTLSLSPGERATLSCRASQSVSRSYLAWYQQKPGQAPRLLIIGASTRATGIPDRFSGSGSGTDFTLTISRLEPEDFAVYYCQQGQVIPPTFGQGTKVEIKRTVAAPSVFIFPPSDEQLKSGTASVVCLLNNFYPREAKVQWKVDNALQSGNSQESVTEQDSKDSTYSLSSTLTLSKADYEKHKVYACEVTHQGLSSPVTKSFNRGEC"

# Source: patent US20140044674A1 (Hoffmann-La Roche, published 2014)
